How the values were obtained:
[1] = target: GST-tagged GDP-loaded KRAS G12D (amino acids 1-188) (Homo sapiens, UniProt P01116, G12D); assay: biochemical
[2] = target: GST-tagged GDP-loaded WT KRAS (amino acids 1-188) (Homo sapiens, UniProt P01116); assay: biochemical

## Nc1cc(Cl)c(C(F)(F)F)c(-c2nc3c4c(nc(OC[C@@]56CCCN5C[C@H](F)C6)nc4c2F)N2C[C@H]4CC[C@H](N4)C2CCO3)c1 (single isomer, unassigned) [Example 24]
[1]
  IC50: 0.16 nM
[2]
  IC50: 2 nM

## Nc1cc(Cl)c(C(F)(F)F)c(-c2nc3c4c(nc(OC[C@@]56CCCN5C[C@H](F)C6)nc4c2F)N2C[C@H]4CC[C@H](N4)C2CCO3)c1 (single isomer, unassigned) [Example 25]
[1]
  IC50: 4.4 nM
[2]
  IC50: 68 nM

## Cc1nc(N)cc(-c2nc3c4c(nc(OCC56COC(C5)C6)nc4c2F)N2CC4CCC(N4)[C@H]2CCO3)c1C(F)(F)F (stereo in doubt) [Example 42, 4-((6aR,7R,10S)-13-((2-oxabicyclo[2.1.1]hexan-4-yl)methoxy)-1-fluoro-5,6,6a,7,8,9,10,11-octahydro-4-oxa-3,11a,12,14,15-pentaaza-7,10-methanocyclohepta[4,5]cyclo-octa[1,2,3-de]naphthalen-2-yl)-6-methyl-5-(trifluoromethyl)pyridin-2-amine]
[1]
  IC50: 8.2 nM
[2]
  IC50: > 1000 nM

## Nc1cc(Cl)c(C(F)(F)F)c(-c2nc3c4c(nc(OC[C@@]56CCCN5C[C@H](F)C6)nc4c2F)N2CC4CCC(N4)C2CO3)c1 (stereo partly drawn) [Example 10, 3-chloro-5-(1-fluoro-12-(((2R,7aS)-2-fluorotetrahydro-1H-pyrrolizin-7a(5H)-yl)methoxy)-5a,6,7,8,9,10-hexahydro-5H-4-oxa-3,10a,11,13,14-pentaaza-6,9-methanonaphtho[1,8-ab]heptalen-2-yl)-4-(trifluoromethyl)aniline]
[1]
  IC50: 0.9 nM
[2]
  IC50: 8.1 nM

## C#Cc1c(F)ccc2cc(O)cc(-c3nc4c5c(nc(OC[C@@]67CCCN6C[C@H](F)C7)nc5c3F)N3CC5CCC(N5)C3CO4)c12 (stereo partly drawn) [Example 11, 5-ethynyl-6-fluoro-4-(1-fluoro-12-(((2R,7aS)-2-fluorotetrahydro-1H-pyrrolizin-7a(5H)-yl)methoxy)-5a,6,7,8,9,10-hexahydro-5H-4-oxa-3,10a,11,13,14-pentaaza-6,9-methanonaphtho[1,8-ab]heptalen-2-yl)naphthalen-2-ol]
[1]
  IC50: 0.16 nM
[2]
  IC50: 0.96 nM

## Nc1cc(Cl)c(C(F)(F)F)c(-c2nc3c4c(nc(OC[C@@]56CCCN5C[C@H](F)C6)nc4c2F)N2CCNC[C@H]2CO3)c1 [Example 12, 3-chloro-5-((S)-1-fluoro-11-(((2R,7aS)-2-fluorotetrahydro-1H-pyrrolizin-7a(5H)-yl)methoxy)-5,5a,6,7,8,9-hexahydro-4-oxa-3,7,9a,10,12-pentaazabenzo[4,5]cyclohepta[1,2,3-de]naphthalen-2-yl)-4-(trifluoromethyl)aniline]
[1]
  IC50: 2.8 nM
[2]
  IC50: 22 nM

## Nc1cc(Cl)c(C(F)(F)F)c(-c2nc3c4c(nc(OC[C@@]56CCCN5C[C@H](F)C6)nc4c2F)N2CCNCC2CCO3)c1 (stereo partly drawn) [Example 13, 3-chloro-5-(1-fluoro-12-(((2R,7aS)-2-fluorotetrahydro-1H-pyrrolizin-7a(5H)-yl)methoxy)-6,6a,7,8,9,10-hexahydro-5H-4-oxa-3,8,10a,11,13-pentaazabenzo[4,5]cycloocta[1,2,3-de]naphthalen-2-yl)-4-(trifluoromethyl)aniline]
[1]
  IC50: 59 nM
[2]
  IC50: 21 nM

## Nc1cc(Cl)c(C(F)(F)F)c(-c2nc3c4c(nc(OC[C@@]56CCCN5C[C@H](F)C6)nc4c2F)N2C[C@H]4CC[C@H](N4)[C@H]2CO3)c1 [Example 17, 3-chloro-5-((5aS,6S,9R)-1-fluoro-12-(((2R,7aS)-2-fluorotetrahydro-1H-pyrrolizin-7a(5H)-yl)methoxy)-5a,6,7,8,9,10-hexahydro-5H-4-oxa-3,10a,11,13,14-pentaaza-6,9-methanonaphtho[1,8-ab]heptalen-2-yl)-4-(trifluoromethyl)aniline]
[1]
  IC50: 0.17 nM
[2]
  IC50: 1.7 nM

## Nc1cc(Cl)c(C(F)(F)F)c(-c2nc3c4c(nc(OCC56COC(C5)C6)nc4c2F)N2C[C@H]4CC[C@H](N4)C2CCO3)c1 (stereo partly drawn) [Example 23, 3-((7S,10R)-13-((2-oxabicyclo[2.1.1]hexan-4-yl)methoxy)-1-fluoro-5,6,6a,7,8,9,10,11-octahydro-4-oxa-3,11a,12,14,15-pentaaza-7,10-methanocyclohepta[4,5]cycloocta[1,2,3-de]naphthalen-2-yl)-5-chloro-4-(trifluoromethyl)aniline]
[1]
  IC50: 0.53 nM
[1]; compared to dibasic G12D inhibitors (e.g., Example 17)
  KRas WT selectivity: improved KRas WT selectivity
[2]
  IC50: 181 nM

## Cc1cc(N)cc(-c2nc3c4c(nc(OCC5(C(F)F)COC5)nc4c2F)N2C[C@H]4CC[C@H](N4)[C@H]2CCO3)c1C(F)(F)F [Example 26, 3-((6aR,7S,10R)-13-((3-(difluoromethyl)oxetan-3-yl)methoxy)-1-fluoro-5,6,6a,7,8,9,10,11-octahydro-4-oxa-3,11a,12,14,15-pentaaza-7,10-methanocyclohepta[4,5]cycloocta[1,2,3-de]naphthalen-2-yl)-5-methyl-4-(trifluoromethyl)aniline]
[1]
  IC50: 0.52 nM
[2]
  IC50: 272 nM

## Cc1cc(N)cc(-c2nc3c4c(nc(OCC56COC(C5)C6)nc4c2F)N2C[C@H]4CC[C@H](N4)[C@H]2CCO3)c1C(F)(F)F [Example 27, 3-((6aR,7S,10R)-13-((2-oxabicyclo[2.1.1]hexan-4-yl)methoxy)-1-fluoro-5,6,6a,7,8,9,10,11-octahydro-4-oxa-3,11a,12,14,15-pentaaza-7,10-methanocyclohepta[4,5]cyclo-octa[1,2,3-de]naphthalen-2-yl)-5-methyl-4-(trifluoromethyl)aniline]
[1]
  IC50: 1.2 nM
[2]
  IC50: 465 nM

## Cc1cc(N)cc(-c2nc3c4c(nc(OCC56COC(C)(C5)C6)nc4c2F)N2C[C@H]4CC[C@H](N4)[C@H]2CCO3)c1C(F)(F)F [Example 28, 3-((6aR,7S,10R)-1-fluoro-13-((1-methyl-2-oxabicyclo[2.1.1]hexan-4-yl)methoxy)-5,6,6a,7,8,9,10,11-octahydro-4-oxa-3,11a,12,14,15-pentaaza-7,10-methanocyclohepta[4,5]cyclo-octa[1,2,3-de]naphthalen-2-yl)-5-methyl-4-(trifluoromethyl)aniline]
[1]
  IC50: 1.1 nM
[2]
  IC50: 379 nM

## Cc1cc(N)cc(-c2nc3c4c(nc(OCC56COC(C(F)F)(C5)C6)nc4c2F)N2C[C@H]4CC[C@H](N4)[C@H]2CCO3)c1C(F)(F)F [Example 29, 3-((6aR,7S,10R)-13-((1-(difluoromethyl)-2-oxabicyclo[2.1.1]hexan-4-yl)methoxy)-1-fluoro-5,6,6a,7,8,9,10,11-octahydro-4-oxa-3,11a,12,14,15-pentaaza-7,10-methanocyclohepta[4,5]cyclo-octa[1,2,3-de]naphthalen-2-yl)-5-methyl-4-(trifluoromethyl)aniline]
[1]
  IC50: 0.74 nM
[2]
  IC50: 313 nM

## Cc1cc(N)cc(-c2nc3c4c(nc(OCC56COCC(F)(C5)C6)nc4c2F)N2C[C@H]4CC[C@H](N4)[C@H]2CCO3)c1C(F)(F)F [Example 30, 3-((6aR,7S,10R)-1-fluoro-13-((5-fluoro-3-oxabicyclo[3.1.1]heptan-1-yl)methoxy)-5,6,6a,7,8,9,10,11-octahydro-4-oxa-3,11a,12,14,15-pentaaza-7,10-methanocyclohepta[4,5]cyclo-octa[1,2,3-de]naphthalen-2-yl)-5-methyl-4-(trifluoromethyl)aniline]
[1]
  IC50: 1.2 nM
[2]
  IC50: 259 nM

## Cc1c(F)c(N)cc(-c2nc3c4c(nc(OCC5(C(F)F)COC5)nc4c2F)N2C[C@H]4CC[C@H](N4)[C@H]2CCO3)c1C(F)(F)F [Example 31, 5-((6aR,7S,10R)-13-((3-(difluoromethyl)oxetan-3-yl)methoxy)-1-fluoro-5,6,6a,7,8,9,10,11-octahydro-4-oxa-3,11a,12,14,15-pentaaza-7,10-methanocyclohepta[4,5]cyclo-octa[1,2,3-de]naphthalen-2-yl)-2-fluoro-3-methyl-4-(trifluoromethyl)aniline]
[1]
  IC50: 0.92 nM
[2]
  IC50: 366 nM

## Nc1cc(Cl)c(C(F)(F)F)c(-c2nc3c4c(nc(OCC5(C(F)F)COC5)nc4c2F)N2C[C@H]4CC[C@H](N4)[C@H]2CCO3)c1 [Example 32, 3-chloro-5-((6aR,7S,10R)-13-((3-(difluoromethyl)oxetan-3-yl)methoxy)-1-fluoro-5,6,6a,7,8,9,10,11-octahydro-4-oxa-3,11a,12,14,15-pentaaza-7,10-methanocyclohepta[4,5]cyclo-octa[1,2,3-de]naphthalen-2-yl)-4-(trifluoromethyl)aniline]
[1]
  IC50: 0.23 nM
[2]
  IC50: 116 nM

## CCOC(=O)N1CC(C)(COc2nc3c4c(nc(-c5cc(N)cc(Cl)c5C(F)(F)F)c(F)c4n2)OCC[C@@H]2[C@@H]4CC[C@H](CN32)N4)C1 [Example 33, ethyl 3-((((6aR,7S,10R)-2-(5-amino-3-chloro-2-(trifluoromethyl)phenyl)-1-fluoro-5,6,6a,7,8,9,10,11-octahydro-4-oxa-3,11a,12,14,15-pentaaza-7,10-methanocyclohepta[4,5]cyclo-octa[1,2,3-de]naphthalen-13-yl)oxy)methyl)-3-methylazetidine-1-carboxylate]
[1]
  IC50: 0.91 nM
[2]
  IC50: 253 nM

## CC12CC(COc3nc4c5c(nc(-c6cc(N)cc(Cl)c6C(F)(F)F)c(F)c5n3)OCC[C@@H]3[C@@H]5CC[C@H](CN43)N5)(CO1)C2 [Example 34, 3-chloro-5-((6aR,7S,10R)-1-fluoro-13-((1-methyl-2-oxabicyclo[2.1.1]hexan-4-yl)methoxy)-5,6,6a,7,8,9,10,11-octahydro-4-oxa-3,11a,12,14,15-pentaaza-7,10-methanocyclohepta[4,5]cyclo-octa[1,2,3-de]naphthalen-2-yl)-4-(trifluoromethyl)aniline]
[1]
  IC50: 0.36 nM
[2]
  IC50: 148 nM

## Nc1cc(Cl)c(C(F)(F)F)c(-c2nc3c4c(nc(OCC56COC(C(F)F)(C5)C6)nc4c2F)N2C[C@H]4CC[C@H](N4)[C@H]2CCO3)c1 [Example 35, 3-chloro-5-((6aR,7S,10R)-13-((1-(difluoromethyl)-2-oxabicyclo[2.1.1]hexan-4-yl)methoxy)-1-fluoro-5,6,6a,7,8,9,10,11-octahydro-4-oxa-3,11a,12,14,15-pentaaza-7,10-methanocyclohepta[4,5]cyclo-octa[1,2,3-de]naphthalen-2-yl)-4-(trifluoromethyl)aniline]
[1]
  IC50: 0.25 nM
[2]
  IC50: 100 nM
